Measured values taken from PubChem BioAssay AID1466 (National Center for Advancing Translational Sciences (NCATS), 2008).
About 10 (0.005%) of roughly 200,000 compounds were called active. The inconclusive results got no clear call from the source; some entries with a clear call stand among them for comparison. The call rests on the fitted dose curve; in most records, active means well fitted inhibition curve with a large enough effect; inconclusive means small, poorly fitted or top-dose-only effect, or effect the other way, or another doubt; inactive means no such curve, though single readings can be large or run the other way. Potencies of inconclusive entries are left out as doubtful fits.

biological target: Lysosomal alpha-glucosidase (Homo sapiens) (UniProt P10253); assay: qHTS Assay for Inhibitors of Human alpha-Glucosidase as a Potential Chaperone Treatment of Pompe Disease; conditions: purified human GAA, 4-MU-alpha-glucoside fluorescence; activity change, negative = inhibition: at 76.9 µM (top of the series) unless noted;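 on activity change, negative = inhibition: plate controls were uninhibited enzyme wells for no effect and no-enzyme background for full effect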
Method in brief: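 Compounds are titrated up to 77 uM against 4 nM human enzyme. Substrate 4-methylumbelliferyl-alpha-D-pyranoside (400 uM) reacts 20 min at room temperature in pH 5.0 buffer; liberated 4-methylumbelliferone is read at 440 nm.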
Potency means the concentration at half of the fitted maximal effect; tags describe the fitted curve by direction and shape.

| Structure (SMILES) | Potency | activity change, negative = inhibition |
| --- | --- | --- |
| Cc1ccn(-c2cc(O)c(-n3ccc(C)n3)cc2O)n1 | inconclusive [inhibitor, single point] |  |
| COc1ccc(OCC(=O)Nc2cccc(-c3nc4ccccc4o3)c2)cc1 | inconclusive [inhibitor, single point] |  |
| CN(c1ccccc1)S(=O)(=O)c1ccc(Cl)c(C(=O)OCC(=O)NC2CCS(=O)(=O)C2)c1 (centres undefined) | inactive |  |
| CNCCCC12CCC(c3ccccc31)c1ccccc12 | inconclusive [inhibitor, partial curve] |  |
| Cc1cc(C)c2c(c1)-c1c(ssc1=S)C(C)(C)N2C(=O)CSc1nncn1C | inconclusive [inhibitor, single point] |  |
| COc1ccc(/C=C2\SC(=N)N(c3ccc(F)cc3)C2=O)cc1 |  | inconclusive: 11.3% [activator] |
| O=c1[nH]c(/C(=N\O)c2ccccc2)no1 |  | inconclusive: -19.3% [inhibitor] |
| O=C(COC(=O)CCC(=O)c1cccs1)Nc1ccc(S(=O)(=O)N2CCOCC2)cc1 | inconclusive [inhibitor, partial curve, poor fit] |  |
| O=C(CSc1nc2ccc(Nc3nc(N4CCOCC4)nc(N4CCOCC4)n3)cc2s1)NCc1ccco1 | inconclusive [inhibitor, single point] |  |
| O=C(Nc1cccc(F)c1)c1coc(=O)c(Br)c1 | inconclusive [activator, partial curve] |  |
| COc1ccc(-c2ccc(CCC(=O)O)n2CC2CCCO2)cc1 (centres undefined) | inconclusive [activator, partial curve] |  |
| CC1CCC(NC(=O)Nc2cccs2)CC1 (centres undefined) | inactive |  |
| O=C(Nc1ccccc1)Nc1ccc2ocnc2c1 | inactive |  |
| COCC(C)OC(=O)c1c(N)n(CC(C)C)c2nc3ccccc3nc12 (centres undefined) | inconclusive [activator, partial curve] |  |
| N#C/C(=C\c1cn(CCOc2ccccc2)c2ccccc12)C(=O)NCc1ccco1 | inconclusive [activator, single point] |  |
| CC(C)(C)Nc1nc(Cl)nc(N(C#N)CN2C(=O)c3ccccc3S2(=O)=O)n1 |  | inconclusive: 16.1% [activator] |
| Nc1cccc(-c2nc3cc(S(=O)(=O)c4ccc5oc(-c6cccc(N)c6)nc5c4)ccc3o2)c1 | inconclusive [inhibitor, single point] |  |
| O=C(c1ccccc1Cl)N(Cc1ccc(Br)cc1)N1C(=O)CCC1=O | inconclusive [inhibitor, full curve, poor fit] |  |
| Cc1ccc(OCc2nc(C#N)c(NCCCn3ccnc3)o2)cc1 | inconclusive [activator, partial curve] |  |
| COc1ccc(OC)c(Nc2ccc(Nc3cc(OC)ccc3OC)nn2)c1 | inconclusive [inhibitor, single point] |  |
| COc1ccc(NC(=O)C2CCCN(S(=O)(=O)c3c(C)n[nH]c3C)C2)cc1 (centres undefined) | inconclusive [inhibitor, single point] |  |
| Cc1c(NC(=O)/C(C#N)=C/c2ccc(-c3ccc(Cl)cc3)o2)c(=O)n(-c2ccccc2)n1C | inconclusive [inhibitor, single point] |  |
| COc1ccccc1C(CC(=O)N1CCCC1)c1ccc2c(c1)OCO2 (centres undefined) | inconclusive [inhibitor, single point] |  |

| Structure (SMILES) | Potency | activity change, negative = inhibition |
| --- | --- | --- |
| Cc1ccc(-c2csc3nc4c5ccccc5c(NCCCN5CCOCC5)nn4c(=O)c23)cc1 |  | inconclusive: 11.3% [activator] |
| N#CC(C(=O)NC1CC1)c1nc2ccccc2nc1N1CCCC1 (centres undefined) | inconclusive [activator, single point] |  |
| O=C(O)c1ccc(-c2nc(-c3ccc(Cl)c(Cl)c3)cs2)cc1 | inactive |  |
| COC(=O)COc1cc(OCC(=O)OC)c2c(C)c(Cl)c(=O)oc2c1 | inconclusive [activator, partial curve] |  |
| OC1CCN(Cc2cn(Cc3ccccc3)nc2-c2cc3ccccc3o2)CC1 |  | inconclusive: 0.219% [activator] |
| c1ccc(C[n+]2cccc3c4ccccc4ccc32)cc1 | inconclusive [activator, partial curve] |  |
| Cc1cccc(-n2nnnc2SCn2nnc3ccccc3c2=O)c1 | inactive |  |
| Oc1ccc(-c2csc(-c3cccnc3)n2)c(O)c1 | inactive |  |
| Cc1ccc(C(=O)Oc2cc(N)n(S(=O)(=O)c3ccc(C)cc3)n2)cc1 | inconclusive [inhibitor, single point] |  |
| Cc1cccc(CSc2nnc(N)n2-c2ccccc2)c1 | inconclusive [inhibitor, single point] |  |
| O=[N+]([O-])c1ccc(O)c(/C=N/n2cnnc2)c1 |  | inconclusive: -18.9% [inhibitor] |
| O=C(Nc1c(C(=O)N2CCOCC2)cnn1-c1ccccc1Cl)c1ccco1 |  | inconclusive: -16.5% [inhibitor] |
| COC(=O)C1=CNC=C(C(=O)OC)C1c1cccc(OC)c1 | inconclusive [activator, partial curve] |  |
| COc1cc(/C=N/N2C(=O)CSC2=S)ccc1O | inactive |  |
| O=C(NC(=S)N(Cc1ccccc1)Cc1ccccc1)C1CCCCC1 | inconclusive [activator, partial curve] |  |
| O=C(Cn1nnc(-c2ccccc2)n1)N1CCN(S(=O)(=O)c2ccc(Cl)cc2)CC1 | inactive |  |
| O=C(N/N=C\c1cn(-c2ccccc2)nc1-c1ccccc1)c1ccc2c(c1)OCO2 | inactive |  |
| COc1ccc(/C=C/C(=O)Nn2cnnc2)cc1 | inconclusive [inhibitor, single point] |  |
| Cc1onc(-c2ccccc2)c1C(=O)N1CCN(Cc2ccc3c(c2)OCO3)CC1 |  | inconclusive: 20% [activator] |
| COCCNC(=S)N1CCC(NC(=O)Nc2ccc(C)cc2)CC1 |  | inconclusive: 16% [activator] |
| COc1cc(OC)cc(C(=O)Nc2ccc(-c3nc4ccccc4o3)c(O)c2)c1 |  | inconclusive: 23.9% [activator] |
| CCOc1ccccc1Nc1nc2ccccc2n2cnnc12 |  | inconclusive: 16.2% [activator] |
| CCOC(=O)c1c(NC(=O)c2cccs2)sc2c1CC(C)(C)OC2 | inconclusive [inhibitor, single point] |  |

| Structure (SMILES) | Potency | activity change, negative = inhibition |
| --- | --- | --- |
| COc1ccccc1Oc1ccc(S(=O)(=O)NCc2ccccn2)cc1 | inconclusive [inhibitor, full curve, poor fit] |  |
| Cn1cccc1/C=C1\SC(=S)N(Nc2ccccc2)C1=O | inconclusive [inhibitor, full curve, poor fit] |  |
| CCN(CC1COc2ccccc2O1)C(=S)Nc1ccc(F)cc1 (centres undefined) | inconclusive [inhibitor, single point] |  |
| COc1ccc(C2=NN(c3nc4ccccc4s3)C(=O)C2)cc1 | inconclusive [inhibitor, full curve] |  |
| N#CC1=C(N)N(c2ccccc2)C(c2ccco2)C1(C#N)C#N (centres undefined) | inconclusive [inhibitor, single point] |  |
| CCS(=O)(=O)c1ccc2c(c1)N(S(C)(=O)=O)CC(C(=O)NN)O2 (centres undefined) | inconclusive [inhibitor, single point] |  |
| Cc1cccc(NC(=O)C2CCCN2C(=O)OCC(C)C)c1 (centres undefined) | inconclusive [inhibitor, full curve, poor fit] |  |
| COc1cccc(OCC(O)CN2CCC(Cc3ccccc3)CC2)c1 (centres undefined) | inconclusive [inhibitor, partial curve, poor fit] |  |
| COc1cccc(C2NC(c3cccc(OC)c3O)C(C)C(=O)C2C)c1O (centres undefined) |  | inconclusive: 15.5% [activator] |
| COc1cc(/C=N/NC(N)=S)ccc1OCC(=O)N1CCOCC1 | inconclusive [inhibitor, partial curve, poor fit] |  |
| COc1cccc(C2CCCCN2Cc2nc(-c3ccc(C)o3)oc2C)c1 (centres undefined) |  | inconclusive: 13.6% [activator] |
| CC1CC(C)(C)NC(=S)O1 (centres undefined) |  | inconclusive: 17.9% [activator] |
| O=[N+]([O-])c1ccc(O)c(N=Cc2sc3ccccc3c2O)c1 | inactive |  |
| O=C(CN1CCN(S(=O)(=O)c2ccc(Br)cc2)CC1)N/N=C/c1cccs1 | inconclusive [inhibitor, partial curve] |  |
| COc1cc(Cl)c(C)cc1NC(=O)Cc1ccc(OC)c(OC)c1 |  | inconclusive: 16.7% [activator] |
| CC(C)N(Cc1nc(-c2ccc(Cl)cc2)no1)Cc1nccn1C |  | inconclusive: 16.1% [activator] |
| CCN(CC)c1ccc(-c2nn3c(-c4n[nH]c5c4CCC5)nnc3s2)cc1 | inconclusive [activator, partial curve] |  |
| Cc1ccc(-n2c(CNc3ccc(F)cc3)nnc2SCC(=O)O)cc1 | inconclusive [inhibitor, single point] |  |
| COc1ccccc1Nc1nc(NCC2CCCO2)c2ccccc2n1 (centres undefined) |  | inconclusive: 17.4% [activator] |
| c1csc(-c2cn3ccc4ccccc4c3n2)c1 |  | inconclusive: 19.7% [activator] |
| Cc1nn(CCO)c2nc(-c3cccs3)cc(C(F)(F)F)c12 | inconclusive [activator, partial curve] |  |
| O=C(Nc1ccc(NC(=O)C2CCCCC2)nc1)c1ccco1 |  | inconclusive: -18.1% [inhibitor] |
| C[n+]1cnn2c1SCC1(COC1)C2 | inconclusive [inhibitor, single point] |  |
